In US5270302A, “Derivatives of tetrapeptides as CCK agonists” (priority 1991, dated 1993):
Part of at least one peptide drawing is inferred or uncertain, most often the ends. *1 amine or outer side, *2 acyl side, *3 side chain or, on linkers, in order; H or OH if unused. Where a SMILES comes first, the peptide text is derived from it. Side-chain parts run from the residue outwards. [ ]: non-standard residue; d: D form. The star is where a group is joined. NMeF = CN[C@@H](Cc1ccccc1)C(=O)O; Cha = N[C@@H](CC1CCCCC1)C(=O)O; NH(2-Me-phenyl) = Cc1ccccc1N*; X1 = O=C(C=Cc1ccc(O)cc1)*; Boc = CC(C)(C)OC(=O)*; CO = O=C([*:1])[*:2]; X2 = C1CN(CCO*)CCO1

Key:
rats [1] = test: Feeding effects of acute administration of CCK agonists in rats (liquid diet); assay type: in vivo; conditions: i.p., acute (1 day)
Description: Feeding Effects of Acute Administration of CCK Agonists in Rats
The experimental paradigm used in the above-mentioned chronic feeding studies was employed to establish dose reponses for CCK agonists of this invention on an acute (1 day) basis. Following an 8-day diet acclimation period, the rats were weighed and injected with vehicle. CCK-8 or test compound (see Table 7) at doses ranging from 1-1000 nmol/kg (i.p.). Six to ten minutes later, the rats were presented with the diet and intakes were recorded. No injections were administered prior to the P.M. feeding. Mean A.M. intakes as a percent of control were plotted versus log dose (nm/kg) to establish the dose response curve.

rats [2] = test: Feeding effect of CCK agonists in food-deprived rats; assay type: in vivo; conditions: i.p., one hour feeding, vehicle 9.40 grams
Procedure: Feeding Effect of CCK Agonists in Rats
Forty male, Sprague-Dawley rats were subjected to a 23 hour food deprivation schedule for four days. On the fifth day, the animals were divided into five equal groups based on their previous (4th day) food intake. […] The amount of food consumed was measured after subtraction of spillage.

mice = test: Behavioral effect of CCK agonists in mice (suppression of locomotor activity); assay type: in vivo
guinea pig gallbladder = conditions: isolated guinea pig gallbladder, relative to CCK-8
Procedure: Guinea Pig Gallbladder Contraction
Gallbladders were obtained from male guinea pigs (250-300 gm). The bile was emptied by a small incision and the gallbladder was suspended in an organ bath. The tissue was maintained at 37° C., suspended in Krebs-Ringer buffer (mM: NaCl, 118; KCl, 4.7; CaCl2, 2.5; MgCl2, 1.2; NaH2 PO4, 1.2; NaHCO3, 25; choline chloride, 30 mM; glucose, 11) and bubbled with 95% O2 -5% CO2. Isometric contractions were recorded with a Grass polygraph. Baseline tension was set at 0.3 grams. After equilibration for approximately 30 minutes, CCK-8 (20 nM) was introduced and tensions were recorded. After reaching maximal contractions (about 5 minutes), the drug was washed out by overflow. The CCK-8 addition was repeated twice to ensure constant force of contraction.

| SMILES | ED50, dose required to decrease mean A.M. food intake by 50% (rats [1]) | Mean Food Intake (rats [2]; dose 1.0 mg/kg) | Mean Food Intake (rats [2]; dose 3.0 mg/kg) | Mean Food Intake (rats [2]; dose 9.0 mg/kg) | Minimal Effective Dose, suppression of locomotor activity (mice; ICV administration) | Minimal Effective Dose, suppression of locomotor activity (mice; IP administration) | maximal force of contraction, higher than that of CCK-8 (guinea pig gallbladder) | ED25, suppression of feeding (liquid diet) (rats [1]) |
| --- | --- | --- | --- | --- | --- | --- | --- | --- |
| CN(C(=O)[C@H](CC(=O)O)NC(=O)[C@H](CCCCNC(=O)C=Cc1ccc(O)cc1)NC(=O)[C@H](Cc1c[nH]c2ccccc12)NC(=O)OC(C)(C)C)[C@@H](Cc1ccccc1)C(N)=O [Example 17, t-BOC-Trp-Lys(ε-N-(4-hydroxycinnamoyl))-Asp-(NMe)PheNH2] (Boc-WK(X1)D[NMeF]-NH2) | 300 nmol/kg | 3.49 grams | 1.80 grams | 1.90 grams | 10.0 nmol/mouse | 1.0 µmol/kg | – | – |
| Cc1ccccc1NC(=O)NCCCC[C@H](NC(=O)[C@H](Cc1c[nH]c2ccccc12)NC(=O)OC(C)(C)C)C(=O)N[C@@H](CC(=O)O)C(=O)N(C)[C@@H](Cc1ccccc1)C(N)=O [Example 33, t-BOC-Trp-Lys(ε-N-(2-methylphenyl)aminocarbonyl)-Asp-(NMe)PheNH2] (Boc-WK([CO-NH(2-Me-phenyl)])D[NMeF]-NH2) | 4.2 nmol/kg | – | – | – | – | – | 95% | 0.9 nmol/kg |
| Cc1ccccc1NC(=O)NCCCC[C@H](NC(=O)C1Cc2c[nH]c3cccc(c23)CC(=O)N1)C(=O)N[C@@H](CC(=O)O)C(=O)N(C)[C@@H](Cc1ccccc1)C(N)=O (stereo partly drawn) [Example 112, Ctp-Lys(ε-N-(2-methylphenyl)aminocarbonyl)-Asp-(NMe)PheNH2] | 51 nmol/kg | – | – | – | – | – | – | 7.8 nmol/kg |
| Cc1ccccc1NC(=O)NCCCC[C@H](NC(=O)[C@H](Cc1c[nH]c2ccccc12)NC(=O)OC(C)(C)C)C(=O)N[C@@H](CC(=O)O)C(=O)N[C@@H](CC1CCCCC1)C(N)=O [Example 116, t-BOC-Trp-Lys(ε-N-(2-methylphenyl)aminocarbonyl)-Asp-ChaNH2] (Boc-WK([CO-NH(2-Me-phenyl)])D[Cha]-NH2) | 7.1 nmol/kg | – | – | – | – | – | – | 1.8 nmol/kg |
| Cc1ccccc1NC(=O)NCCCC[C@H](NC(=O)[C@H](Cc1c[nH]c2ccccc12)NC(=O)OC(C)(C)C)C(=O)N[C@@H](CC(=O)OCCN1CCOCC1)C(=O)N(C)[C@@H](Cc1ccccc1)C(N)=O [Example 120, t-BOC-Trp-Lys(ε-N-(2-methylphenyl)aminocarbonyl)-Asp(β-2-(1-morpholino)ethyl)-(NMe)PheNH2] (Boc-WK([CO-NH(2-Me-phenyl)])D(X2)[NMeF]-NH2) | 12.3 nmol/kg | – | – | – | – | – | – | 2.1 nmol/kg |
